About 540 (0.36%) of roughly 150,000 compounds showed an effect of 50% or more. Some of the results follow.
system: Plasmodium falciparum; test: Primary screen in NF54 nanoGlo assay, in single point, at 2uM, 72h; a lower Z score goes with more inhibition; format: functional, Erythrocyte; settings: timepoint 72 hour

Compound	% Inhibition [%]	Z score
COc1cc(NC(=O)c2cc(S(=O)(=O)N3CCN(c4ccccc4)CC3)ccc2Cl)c(OC)cc1NC(=O)c1ccccc1	-6	1
O=C(Cn1nc2c(N3CCN(c4ccccc4)CC3)nccn2c1=O)Nc1ccc(Cl)cc1F	-12	1.18
CCc1ocnc1C(=O)N[C@H]1CCOC[C@@H]1OCC1CCC1	4	-0.41
CC(NC(=O)NCc1c(C2CC2)cnn1C)C1COc2ccccc21 (stereo not given)	-1	0.19
Cc1ccccc1CNC(=O)c1nc(-c2ccnc(N3CCOCC3)c2)no1	-9	1.24
CC(C)(CN1CCCCCC1)c1nc2cc3[nH]c(=O)[nH]c3cc2[nH]1	-7	1.04
C#CCN(C)S(=O)(=O)Cc1ccc(CC)cc1	-8	1.45
CN(Cc1ccc(Cl)s1)C(=O)CN1CCC[C@H]1C(=O)O	1	-0.13
C1CCC(CCCN2CCNCC2)CC1	-9	1.06
O=C(CN1C(=O)CN(c2ccccc2)C1=O)Nc1ccc2c(c1)OCCO2	-16	1.45
CCN(C(=O)NCc1nc(C(=O)NC)no1)C1CCCCCC1	11	-1.46
Cc1ccc2nc(-c3ccccc3NC(=O)c3ccc(N(C)C)cc3)ccc2c1	0	0.02
CC1(C)CN(CCNc2nc(C(F)F)nc3ccccc23)CCO1	-11	1.54
Cn1cc(-c2noc(-c3n[nH]c(=O)c4ccccc34)n2)cn1	10	-1.26
CS(=O)(=O)N1C[C@H](C(=O)Nc2ccc(N3CCOCC3)cc2)C2(CCCCC2)C1	-13	2
NCc1cc(F)c(Br)cc1F	-10	1.41
COc1cc(-c2ncnn2-c2ccc(Cl)c(C)c2)ccc1OCc1ccccc1	-7	0.81
CC(C)N(CCNC(=O)C1CCN(c2ncnc3c2nc2n3CCCCC2)CC1)Cc1ccccc1	-2	0.38
CCOC(=O)c1sc(Nn2cc(C(=O)OC)c3n[nH]c(=O)c-3c2)nc1C	0	0.02
O=C(c1cccc(F)c1)N1C2C=CC(C2)C1(C(F)(F)F)C(F)(F)F (stereo not given)	27	-3.07
CC(C)Cc1ncc2c(n1)CN(CC[C@H]1CCCCN1C)C2	-8	1.11
COc1cccc(CN2CCC(CO)(CCCc3ccccc3)CC2)c1OC	0	0.06

Compound	% Inhibition [%]	Z score
COc1ccc(OC)c(-c2ccnc(-n3ncc(C(=O)NCC(C)(C)N4CCOCC4)c3C)n2)c1	11	-1.36
C[C@H](NC(=O)N1CCOC(CS(C)(=O)=O)C1)c1cccc(O)c1 (stereo not given in full)	-2	0.37
Cc1nn(-c2cccc(Cl)c2)c2nc(-c3ccccn3)cc(C(F)(F)F)c12	-10	1.85
Cc1nc(Cn2nc(C3CCNCC3)n(Cc3ccccc3)c2=O)sc1C	-7	1.41
CCN1CCN(C(=O)c2cc(C)nc(C)n2)[C@@H](C)C1=O	-7	1.27
CC(Nc1ncnc2nc[nH]c12)C1CN(Cc2ccccc2)CCO1 (stereo not given)	-9	1.67
O=C(Nc1ccc(OC[C@H](O)c2ccccc2F)cc1)c1ccco1	-14	2.26
O=S(=O)(c1ccc(-c2csc(-c3ccc(O)cc3)n2)cc1)N1CCOCC1	6	-1.16
O=C(NCCCc1ccccc1)[C@H]1CCCNCC1	-5	0.48
Fc1cc(F)c(CN2CCn3nc(CNc4ncccn4)cc3C2)c(F)c1	-5	0.6
O=C(NCCOCC(F)(F)F)NCCc1ccc(Cl)s1	5	-0.86
O=C(CCOc1ccccc1)N[C@@H]1COC2(CCCC2)C1	13	-1.61
COc1ccc(NC(=O)NC(Cc2ccc(F)cc2)Cc2ccc(F)cc2)c(OC)c1	-6	0.98
Cn1c(=O)ccc2c(NCCO)ncnc21	-9	1.52
CN1CCOC[C@@H](Cn2cnc3ccc(Cl)cc3c2=O)C1	-10	1.92
CCC(NC(C)Cn1ncc2ccccc2c1=O)c1ccccc1O (stereo not given)	-1	0.18
Cc1ccc(OCCC(=O)N2CC[C@@H](N)C2)c(Br)c1	4	-0.81
COc1cc(CNn2cnnc2)ccc1OCc1ccc(F)cc1Cl	-7	0.99
CCCN(C[C@H]1CCOC1)C(=O)NCC(C)C	-7	0.94
O=C(CC(F)(F)F)N(Cc1ccco1)C1CC1	-10	1.84
O=C(NCCN1CCCCC1)c1cc2n(n1)CCN(Cc1cccc(C(F)(F)F)c1)C2=O	-5	0.81
Cc1ccc(NS(=O)(=O)c2ccc(Oc3ccc4c(C(F)(F)F)cc(C(F)(F)F)nc4n3)cc2)cc1	-9	1.26

Compound	% Inhibition [%]	Z score
CCCC(=O)N1CCC(C(=O)Nc2nc3c(s2)CCC3)CC1	12	-1.2
CC1CC(C)(C)CC(CO)(NC(=O)c2csnn2)C1 (stereo not given)	0	0
COC(=O)C1CC2CCCCC2N1S(=O)(=O)c1ccc(C(N)=O)cc1 (stereo not given)	1	-0.26
CCN(Cc1nc(C(C)C)no1)C(=O)c1c(C)ncnc1C	-1	0.13
Cc1nn(C2CCCC2)c2nc(-c3cccs3)[nH]c12	-10	1.39
O=C1C[C@@H](c2cccc(Oc3ccccc3)c2)NC(=O)N1	4	-0.75
COc1ccc(C2=NN(c3nc(-c4ccccc4)cs3)[C@H](c3ccc(Cl)cc3Cl)C2)cc1F	-2	0.34
Nc1nc2c(c(-c3cccnc3)n1)CN(C(=O)[C@H]1C[C@@H]1c1ccccc1)C2	-4	0.45
CCOc1cc(C(=O)N2CCC3(O)CCCCC3[C@@H]2c2ccccc2OC)cc(OCC)c1OCC (stereo not given in full)	2	-0.26
Cc1ccc2ncc(-c3ccnc(CO)c3)cc2c1	1	-0.22
CN(CC(=O)NC1CCOCC1)[C@H]1CCCN(Cc2ccccc2)C1	-11	2.06
Cc1nc(O)c(Br)cc1C(=O)N1CCC(OC2CCC2)CC1	12	-2.38
CCc1ccc([C@@H]2CCCCCN2C(=O)CCN2CCCC2=O)o1	-10	0.93
Cc1n[nH]c2ncc(NCc3cccc(C#N)c3)cc12	-5	0.53
Cc1ccc(-n2ccc3c(nnc4ncnn43)c2=O)cc1	-2	0.25
COc1ccccc1OCc1nc(C)nn1C[C@H]1COCCO1	0	-0.06
Cc1nccn1C1(C(=O)O)CCN(C(=O)c2cc3sccc3[nH]2)CC1	-11	1.03
COc1ccc(-c2nc(NCc3ccc(C)c(F)c3)[nH]c(=O)c2C#N)cc1	-2	0.38
COc1cccc(F)c1C(=O)N1CCN(C)[C@H](c2ccccc2)C1	9	-1.63
O=S(=O)(CCC1CCCC1)N1CC[C@]2(CCOC2)C1	33	-3.6
Nc1c2c(-c3ccc(F)cc3)nc(NCCc3ccccc3)nc2nn1-c1ccccc1Cl	-40	6.52
CCc1[nH]nc(-c2ccc(F)c(F)c2)c1NC(=O)c1ccccc1F	-13	1.9

Compound	% Inhibition [%]	Z score
COc1ccc(-c2nn(-c3ccccc3C)cc2CN(C)Cc2ccn[nH]2)cc1F	-2	0.31
C[C@H]1CN(C(=O)C(C)(C)C(F)F)Cc2ccccc2O1	-16	1.7
CCNC(=O)C1CN(C(=O)c2nn(-c3ccccc3Cl)cc2C)C1	-18	2.47
Cc1nc(-c2ccc3ccccc3c2)n(CCCO)n1	-10	1.91
COc1cccc(C(CC(=O)NC2CC2)c2cnc3n2C(C)CCC3)c1 (stereo not given)	-15	1.8
CN1CC[C@H](NS(=O)(=O)c2cccc3ccoc23)C1	-12	1.25
Cn1ccc(CCNC(=O)NCCC2=CCCCCC2)n1	-9	0.88
Cc1noc(C)c1-c1cccc(C(=O)NCC2(C)COC2)c1	-1	0.11
O=C(NCCOc1ccc2c(c1)OCO2)NC[C@H]1CCCO1	4	-0.85
CCc1cc(CC)n(-c2cnn(C)c2)n1	-6	0.56
COC[C@H](C)C(=O)Nc1ccnc(C)c1Cl	-14	1.84
C[C@@H](C(=O)N1CCN(c2ccc(F)cc2)CC1)n1c2ccccc2c2cnn(C)c(=O)c21	-2	0.28
CN(Cc1cc(Cl)cc2c1OCC2)C1CC[S+]([O-])CC1 (stereo not given)	8	-1.47
CN(C)[C@@]1(c2nnnn2C2CCCC2)CCN(C(=O)c2ccc(F)cc2F)C1	-3	0.34
O=C(NCC1CCCO1)NC[C@@H]1Cc2ccccc2CO1 (stereo not given in full)	6	-0.94
CN(CCC(=O)N1CCc2ccccc2C1)CCn1cccn1	-10	1.38
COc1cccc(-c2nc(NCCN3CCCCC3)nc3nn(C)c(N)c23)c1	-10	1.13
COc1ccc(S(=O)(=O)NC(CC(=O)NCC2CCCO2)c2ccco2)cc1 (stereo not given)	12	-1.44
CCC1(CC)NC(=O)N(Cc2nc(C)c(C)o2)C1=O	-15	1.81

Reference: ChEMBL document CHEMBL4888484, “Replenishing the malaria drug discovery pipeline: Screening and hit evaluation of the MMV Hit Generation Library 1 (HGL1) against asexual blood stage Plasmodium falciparum ,using a nano luciferase reporter read-out” (2022)
